# Measured values taken from PMC4336329 (PLoS ONE, 2015).
# About 2,200 (0.71%) of roughly 310,000 compounds showed an effect of 50% or more. The effect is printed as a negative number. This is one part of the list.
# Biological target: human ether-à-go-go-related gene (hERG) potassium channel (human, UniProt Q12809)
# Assay: primary screen, population patch clamp on CHO cells stably expressing hERG
# Sequence of human ether-à-go-go-related gene (hERG) potassium channel (Q12809 whole entry, looked up): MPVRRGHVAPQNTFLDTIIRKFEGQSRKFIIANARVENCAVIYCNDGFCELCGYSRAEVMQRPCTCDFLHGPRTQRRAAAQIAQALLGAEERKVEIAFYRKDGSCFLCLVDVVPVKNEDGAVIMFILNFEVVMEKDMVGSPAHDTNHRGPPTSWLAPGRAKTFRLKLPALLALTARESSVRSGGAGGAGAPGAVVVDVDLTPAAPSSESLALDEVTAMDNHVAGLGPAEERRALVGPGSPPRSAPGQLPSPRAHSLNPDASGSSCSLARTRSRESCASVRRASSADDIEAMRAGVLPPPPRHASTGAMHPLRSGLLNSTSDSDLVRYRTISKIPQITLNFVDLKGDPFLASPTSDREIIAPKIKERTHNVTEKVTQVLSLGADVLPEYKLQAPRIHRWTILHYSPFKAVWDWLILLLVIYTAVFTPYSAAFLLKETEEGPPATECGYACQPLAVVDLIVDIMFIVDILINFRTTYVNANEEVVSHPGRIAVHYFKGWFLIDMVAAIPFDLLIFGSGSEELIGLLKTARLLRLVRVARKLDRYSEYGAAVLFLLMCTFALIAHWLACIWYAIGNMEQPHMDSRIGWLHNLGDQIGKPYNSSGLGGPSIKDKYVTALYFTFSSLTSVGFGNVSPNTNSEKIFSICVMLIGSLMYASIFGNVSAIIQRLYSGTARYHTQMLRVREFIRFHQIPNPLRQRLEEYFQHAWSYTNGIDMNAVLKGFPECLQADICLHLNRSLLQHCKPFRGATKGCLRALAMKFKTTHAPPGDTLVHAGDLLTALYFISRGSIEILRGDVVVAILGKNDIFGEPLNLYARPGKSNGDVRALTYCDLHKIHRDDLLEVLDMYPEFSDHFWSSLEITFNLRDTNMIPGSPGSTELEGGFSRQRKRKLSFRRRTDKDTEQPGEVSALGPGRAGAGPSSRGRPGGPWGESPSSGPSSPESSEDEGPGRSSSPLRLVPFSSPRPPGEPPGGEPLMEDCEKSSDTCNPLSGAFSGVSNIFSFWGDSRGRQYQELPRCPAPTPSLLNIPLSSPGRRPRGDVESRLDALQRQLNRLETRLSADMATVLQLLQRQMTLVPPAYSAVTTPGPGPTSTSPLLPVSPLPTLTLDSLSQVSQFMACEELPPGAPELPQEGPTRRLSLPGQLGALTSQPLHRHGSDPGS
row,SMILES,"hERG current change (%, negative = inhibition) at 1uM [%]"
1,COc1ccc(CN(C(=O)c2snc(C(N)=O)c2N)C(C(=O)NC2CCCC2)c2ccc(OC)c(OC)c2)cc1 (stereo not shown),8.23
2,Cc1cccc(NC(=O)c2ccc3c(c2)C(=O)N(c2ccccc2C)C3=O)n1,19.8
3,COc1ccc(CCC(=O)Nc2nc3ccccc3[nH]2)cc1OC,-51.1
4,CCCc1cc(=O)oc2cc(OC(=O)CN3C(=O)NC4(CCCC4)C3=O)ccc12,2.91
5,S=C(Nc1ccc(Oc2ccccc2)cc1)N1CCN(c2ccccn2)CC1,10.1
6,Cc1ccc2oc(C(Cl)(Cl)Cl)cc(=O)c2c1,10.4
7,COc1ccccc1C(=O)C(O)c1ccccc1OC (stereo not shown),-0.792
8,CCOc1cc(-c2nc(-c3ccncc3)no2)cc(OCC)c1OCC,-2.06
9,O=C(/C=C/c1cccc(Cl)c1)Nc1ccncc1,3.5
10,Cc1ccc(-c2nnc(SCC(=O)Nc3ccc4c(c3)oc3ccccc34)n2C)c(Cl)c1,6.02
11,Cc1ccccc1-n1c(-c2ccoc2)nc2ccccc2c1=O,12
12,O=[N+]([O-])c1ccc(O)c(Nc2ncnc3ccccc23)c1,10.4
13,NS(=O)(=O)c1ccc(NC(=O)c2cc(Cl)sc2Cl)cc1,-4.94
14,Br.COc1cccc(C(=O)Cn2c(NCCO)nc3ccccc32)c1,17.3
15,CC1(C)CC(=O)/C(=C(/O)Cc2ccccc2)C(=NCCc2ccccc2)C1,-0.981
16,CCN1C(=O)C(CC(=O)Nc2c(C)cccc2C)Nc2cc(S(=O)(=O)N(C)C)ccc21 (stereo not shown),7.5
17,CCCCNC(=O)C1CCN(C/C(C)=C/c2ccccc2)CC1.O=C(O)C(=O)O,-33.9
18,Cc1cccc(NS(=O)(=O)c2ccc(C(=O)N3CCN(c4ccccc4O)CC3)cc2)c1C,14
19,COc1ccccc1CNC(=O)Cn1cccc1C(=O)c1ccccc1C,-1
20,Cc1cccc(C)c1NCc1nnc(SCC(=O)Nc2nc(-c3ccccc3)cs2)n1-c1ccccc1,-5.85
21,CCOC(=O)/C=C/C(=O)Nc1nccs1,13.4
22,COCCOC(=O)c1c(C)nc(SCC(=O)Nc2cccc3ccccc23)c(C#N)c1-c1ccco1,13.7

row,SMILES,"hERG current change (%, negative = inhibition) at 1uM [%]"
1,CC1CC(C)CN(C(=O)CCNS(=O)(=O)c2cccs2)C1 (stereo not shown),1.81
2,c1cncc(-c2nc(NCC3CCCO3)c3ccccc3n2)c1 (stereo not shown),13.4
3,CCc1cc2c(=O)n(CC)c(SC(C)C(=O)Nc3c(C)n(C)n(-c4ccccc4)c3=O)nc2s1 (stereo not shown),-7.94
4,COc1ccc(-c2cc3nc4ccccc4n3c(N)c2C#N)cc1,5.05
5,CC(OC(=O)c1cc(=O)c2ccccc2o1)C(=O)Nc1ccc(N(C)C)cc1 (stereo not shown),7.64
6,CCOC(=O)c1sc(NC(=O)c2ccc(C)s2)cc1C,6.31
7,Cc1ccc(CS(=O)Cc2ccc(C(=O)NCc3ccccc3Cl)o2)cc1 (stereo not shown),3.78
8,CCc1nnc(NC(=O)CCC(=O)NC2CCCCC2)s1,10.9
9,CCc1cc(=O)oc2cc(C)cc(OCC(=O)NCCc3c[nH]c4ccccc34)c12,10.8
10,CC1(C)CC(=O)C(C=NCCCO)=C(O)C1,8.63
11,C/C(=N\NC(=O)c1ccc(N/N=C(\C)c2ccc(O)cc2)cc1)c1ccc(O)cc1.O=S(=O)(O)O,-4.96
12,CC(C)(C)NC(=O)C(c1ccccc1F)N(Cc1ccco1)C(=O)c1csnn1 (stereo not shown),9.25
13,CCOc1cc(/C=C(/C#N)c2nc3ccccc3[nH]2)ccc1OCc1ccc(C(=O)O)o1,14
14,O=C(C1CCCN(Cc2ccccc2C(F)(F)F)C1)N1CCCCC1.O=C(O)C(=O)O (stereo not shown),7.34
15,CCn1c(O)c(C=Nc2ccc(N3CCOCC3)cc2)c(=O)n(CC)c1=S,3.79
16,Cc1cc(C(=O)N/N=C\C(Br)=C\c2ccccc2)c(C)o1,9.64
17,Cn1c(CNC(=O)c2ccco2)nnc1SCC(=O)Nc1ccc(Cl)cc1,-5.72
18,COc1ccccc1-n1c(-c2ccco2)n[nH]c1=S,11.1
19,CCOC(=O)N1CCN(C(=O)CSc2nnc(Cc3ccccc3)o2)CC1,2.57
20,CC1=C(c2ccc(Cl)cc2)[N+](=O)C(C)(C)N1[O-],10.3
21,Cc1nnc(NC(=O)CSc2ncnc3scc(-c4ccccc4)c23)s1,18.6
22,CC(C)(C)NC(=O)CN1CCC(NC(=O)C23CC4CC(CC(C4)C2)C3)CC1,17.8

row,SMILES,"hERG current change (%, negative = inhibition) at 1uM [%]"
1,Cc1cc(S(=O)(=O)Nc2ccc3ccccc3c2)c(C)s1,0.0845
2,Cn1c(SCC(=O)c2ccccc2)nnc1-c1ccccn1,5.2
3,CCn1c(=O)c2c3c(sc2n2c(=S)[nH]nc12)CCC3,19.2
4,Cc1nnc(NC(=O)c2ccc3c(c2)C(=O)N(CCC(C)C)C3=O)s1,2.18
5,O=C(CCNS(=O)(=O)c1cccc2nsnc12)NCc1ccc(F)cc1,-0.149
6,CC(=O)Nc1ccc(Nc2ccc3c4c(cc(=O)n3C)-c3ccccc3C(=O)c24)cc1,9.4
7,O=c1c2ccccc2nc(CNCC2CCCO2)n1-c1ccc(F)cc1 (stereo not shown),14.5
8,C/C(CC1(O)C(=O)N(Cc2ccccc2)c2ccccc21)=N\O (stereo not shown),4.21
9,Cc1cc(C)n(-c2ccc3cccc(NS(C)(=O)=O)c3n2)n1,20.5
10,Cn1cc(C(=O)N/N=C/C2=C(N3CCOCC3)C(=C\c3ccccc3)/CC2)ccc1=O,6.35
11,CCC(C)c1ccc(N(C(=O)c2ccco2)C(C(=O)NC2CCCC2)c2cccnc2)cc1 (stereo not shown),8.33
12,O=C(CCn1nnc(-c2cccs2)n1)N1CCc2ccccc2C1,2.56
13,O=C(NCc1ccc2c(c1)OCO2)C1CC(=O)N(CCc2ccc(Cl)cc2)C1 (stereo not shown),-8.47
14,N#Cc1cnn(-c2ccccc2)c1NC(=O)CN1CCOCC1,5.17
15,Cc1ccc(OCC(=O)Nc2ccc(C)c(S(=O)(=O)N3CCCCC3)c2)c([N+](=O)[O-])n1,-23.7
16,CCSc1nc2c(sc3ccccc32)c(=O)n1C(C)C,4.97
17,O=C(Nc1nccs1)C1CCN(S(=O)(=O)c2ccccc2)CC1,10.8
18,CC(C)C(=O)NC(=S)Nc1ccc(CN2CCOCC2)cc1,10.3
19,Nc1nc2c(ncn2COC(CO)CO)c(=O)[nH]1,14.3
20,O=S1(=O)N=C(Nc2ccc(N3CCOCC3)c(Cl)c2)c2ccccc21,16.3
21,O=c1c2ccccc2nnn1Cc1ccccc1Cl,12.4
22,Cc1ncc(CN2CCC(C(=O)Nc3ccc(-n4cccn4)cc3)CC2)s1,-6.71

row,SMILES,"hERG current change (%, negative = inhibition) at 1uM [%]"
1,COc1ccc(NC(=O)COc2ccc(-c3ccccc3)cc2)cc1,11.4
2,O=C1NC(c2ccc3c(c2)OCO3)Nc2ccccc21 (stereo not shown),13.5
3,COc1ccc(CNC(=O)C2CCCN(c3nn4c(=O)cc(C)nc4s3)C2)cc1 (stereo not shown),-12.3
4,COc1ccc(NC(=S)N(CCN2CCOCC2)Cc2cc3cc4c(cc3[nH]c2=O)OCO4)cc1,2.95
5,N/C(=N\NS(=O)(=O)c1ccccc1C(F)(F)F)c1ccccn1,9.15
6,O=C(CCCN1C(=O)c2ccccc2C1=O)Nc1nccs1,-3.26
7,CCOc1ccc(S(=O)(=O)Nc2nc3ccccc3nc2Nc2ccc(N3CCOCC3)cc2)cc1,0.261
8,OCC[C@@H]1C[C@H](O)[C@@H](O)[C@@]2(CCc3ccccc3CO2)O1,5.8
9,Nc1ccc2nonc2c1[N+](=O)[O-],7.78
10,Oc1ccc(N=Nc2ccccc2)cc1,15.1
11,Cc1cc(C)nc(SCC(=O)NC2CCCCC2C)n1 (stereo not shown),12.3
12,O=C(OCCCN=C1NS(=O)(=O)c2ccccc21)c1ccc([N+](=O)[O-])cc1,3.18
13,O=C1c2ccccc2S(=O)(=O)c2cc(N3CCN(c4ccccn4)CC3)ccc21,6.71
14,CCOc1cc(C)c(C(C)C)cc1S(=O)(=O)n1cnc(C)c1,-1.92
15,Cc1cc(N2CCOCC2)n2ncc(-c3ccccc3Cl)c2n1,10
16,CC(C)(C)C1CCc2onc(C(=O)Nc3cccnc3)c2C1 (stereo not shown),-9.24
17,COc1cc(C(=O)OCC#N)ccc1OCc1c(C)noc1C,5.66
18,O=C(N/N=C/c1cccnc1)c1ccccc1Cl,14.9
19,O=C(COC(=O)CSc1nnc(-c2ccc(Cl)cc2)o1)Nc1cc(Cl)cc(Cl)c1,14.3
20,COc1ccc2c(c1)CC/C2=N\OC(=O)c1ccccc1OC,8.27
21,COc1ccc(C(=O)NCc2cc(C)nc3ccccc23)cc1,-12.4
22,O=C(COC(=O)c1ccccc1O)NC(=O)c1ccc(OC(F)F)cc1,13.1
